The other results are listed elsewhere or left out.

The target of this assay is T1, OsWOX13 (Oryza sativa, UniProt Q5QMM3 1-267).
T1 sequence: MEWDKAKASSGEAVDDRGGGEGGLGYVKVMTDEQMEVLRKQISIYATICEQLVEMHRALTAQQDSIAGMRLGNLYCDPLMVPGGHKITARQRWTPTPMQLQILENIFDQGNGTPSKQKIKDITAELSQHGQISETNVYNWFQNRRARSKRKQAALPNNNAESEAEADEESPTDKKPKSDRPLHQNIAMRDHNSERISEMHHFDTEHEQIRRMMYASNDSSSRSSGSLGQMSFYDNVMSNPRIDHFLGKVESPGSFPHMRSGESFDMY
The experiment in a line: protein-binding microarray (RPBM); PBS, 2% BSA, 51.3 ng/ul salmon testes DNA, 50 uM zinc acetate, 200 nM TF, 25 C, 1 h; high values mean tight binding. The note with it: protein: recombinant; tags: N-terminal polyhistidine and DsRed monomer fusion (pET32a); label: CyDye5-dUTP incorporated in the synthesized complementary strand; 3' TTTTT single-stranded linker to array surface; dsDNA, one strand shown. A digest of the protocol: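 The binding signal for each feature is its fluorescence intensity in arbitrary units. An Axon 4000B scanner was used to read a custom Agilent array that had been made double-stranded with Cy5-dUTP primer extension, blocked with 2% BSA, incubated at 25 °C for 1 h with 200 nM protein in PBS, 2% BSA, salmon testes DNA and 50 µM zinc acetate, and washed. The protein was an N-terminal polyhistidine–DsRed transcription factor fusion from E. coli BL21-CodonPlus, purified on Ni–NTA.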
Consider “GCGCAAAATTTCGAAATTTAATTTTGAAATGCATTTTATTCGGAGTCACCTAGTGCAG”, for which the binding signal is 7620 fluorescence intensity (a.u.).

Consider “TACGGGAATTGTTCTGATTGATGTTATTAATATTGGTTGGCGGAGTCACCTAGTGCAG”, for which the binding signal is 49700 fluorescence intensity (a.u.).

Consider “AACTCGTGTTCTAATTGGCAAGATGAGTTGATAAGATTATCGGAGTCACCTAGTGCAG”, for which the binding signal was 7030 fluorescence intensity (a.u.).

In the case of “GTATAATTATAGCGTAGTTATATTGTAACCTTATATAACTCGGAGTCACCTAGTGCAG”, the binding signal was 7090 fluorescence intensity (a.u.).

For the sequence “ACATTAACATATAATTAATTAAGTTTTAATTCTCGGAAAACGGAGTCACCTAGTGCAG”, the binding signal is 46100 fluorescence intensity (a.u.).

Regarding “ATGCCTCTTCAATCATTAGCCGAAGAAGCAAGTGCCTAATCGGAGTCACCTAGTGCAG”, the binding signal was 5440 fluorescence intensity (a.u.).

In the case of “ACCGTGTCAAGACAAATAATTAAGGTCAGAAATTACTTATCGGAGTCACCTAGTGCAG”, the binding signal is 3890 fluorescence intensity (a.u.).

Take “AAAACCAGGCAAGTGATTGATACGGCCGGTCCGCTTCCATCGGAGTCACCTAGTGCAG”: the binding signal is 32500 fluorescence intensity (a.u.).

On to “TGAGACAATCAGACCCCTAATTGCGGCTCATGATTTTATACGGAGTCACCTAGTGCAG”, for which the binding signal was 11800 fluorescence intensity (a.u.).

Turning to “GCTAAAATTGAAAGTTTGGTTGAAATTGGAATAATGTGATCGGAGTCACCTAGTGCAG”, the binding signal is 24900 fluorescence intensity (a.u.).

As for “AGCACAAGACCCGTCAATCATTTCATAAAGGATCCAAAGGCGGAGTCACCTAGTGCAG”, the binding signal was 7440 fluorescence intensity (a.u.).

In the case of “GTTTATGTGTGATTGGTACAATCTGGAGAGAAACAAACCACGGAGTCACCTAGTGCAG”, the binding signal is 16200 fluorescence intensity (a.u.).

Consider “ATACTAATACTTAATTAACCACGCGCTAATAGACCCCTCGCGGAGTCACCTAGTGCAG”, for which the binding signal was 9190 fluorescence intensity (a.u.).

Regarding “CTCTTGACAGTCATATAAAGGACTCAGTAGTTGACCATCACGGAGTCACCTAGTGCAG”, the binding signal is 5230 fluorescence intensity (a.u.).

With “TAGTAGATTATAAGAAGTTATAATTGTAGAGTTAATCTTGCGGAGTCACCTAGTGCAG”, the binding signal was 5400 fluorescence intensity (a.u.).

Take “TTTCGCAATTATATTGATGCAGAAATCAGCAGCTCACAATCGGAGTCACCTAGTGCAG”: the binding signal is 5830 fluorescence intensity (a.u.).

Regarding “CAATCAATCAACAAGTCAGTGTGATTTATAGTCATAAGATCGGAGTCACCTAGTGCAG”, the binding signal is 36000 fluorescence intensity (a.u.).

“GTATAGATTGTTTTGATGTAAAATTCCTGATTTGGGCCTTCGGAGTCACCTAGTGCAG”: the binding signal was 14200 fluorescence intensity (a.u.).

Take “CCTTTTGTAATCATAAACGGGCCGTGACGAGTTCCAGGTACGGAGTCACCTAGTGCAG”: the binding signal is 5810 fluorescence intensity (a.u.).

Regarding “GGAAGATTAAACAACGATTGGTTGTCTCATGTCTAGCCTACGGAGTCACCTAGTGCAG”, the binding signal was 18500 fluorescence intensity (a.u.).

Take “CAGAAATCATGTATATTTTAATTTTGTTTTCTAGATTTCGCGGAGTCACCTAGTGCAG”: the binding signal is 12000 fluorescence intensity (a.u.).

“AAAATCATGGTGTTAATTCTCTATTTTGATTCAGTATTGGCGGAGTCACCTAGTGCAG”: the binding signal was 3560 fluorescence intensity (a.u.).

In the case of “AATAAATATTGGGTCAATCAGACCAGAACAATCTAAAGTCCGGAGTCACCTAGTGCAG”, the binding signal is 7540 fluorescence intensity (a.u.).

Take “TCTCCTTACCTGTTAACTTTCTCCCTGACAGCTATTGCAACGGAGTCACCTAGTGCAG”: the binding signal is 4120 fluorescence intensity (a.u.).

In the case of “AAAATGTCAATTAGATGCGTAATTAAACAGAAACTTCGGACGGAGTCACCTAGTGCAG”, the binding signal was 42000 fluorescence intensity (a.u.).

“CCAAACATAGCCTAATCAATTAGCATAGCTCTGTTTCTAACGGAGTCACCTAGTGCAG”: the binding signal was 12000 fluorescence intensity (a.u.).

For “TTTCTAATTTCTTTCAGCATCGTATTAATGTCGATATTAACGGAGTCACCTAGTGCAG”, the binding signal was 3250 fluorescence intensity (a.u.).

Regarding “ATAGATGAAGAATAAATATGATTGGTAGAGAAGAGAGATGCGGAGTCACCTAGTGCAG”, the binding signal was 25600 fluorescence intensity (a.u.).

For “CAGAAATTAGTCTTTTAAGGACAGAGGAAAATATGTTCATCGGAGTCACCTAGTGCAG”, the binding signal was 3710 fluorescence intensity (a.u.).

Consider “CATTTACAAATTAAAACAAGCTGACATCAAAGTGACAAACCGGAGTCACCTAGTGCAG”, for which the binding signal is 3300 fluorescence intensity (a.u.).

In the case of “ATATATATATATATATATATATAGAGAGAGAGAGAGAGACCGGAGTCACCTAGTGCAG”, the binding signal is 8870 fluorescence intensity (a.u.).

With “TTCCAGTTATTTCTAAATTGTATTCCTATTTGGACTCTCCCGGAGTCACCTAGTGCAG”, the binding signal is 3910 fluorescence intensity (a.u.).

With “TGTTACTGATTGTAATGCAGTTATTTGTGACATATGTGAACGGAGTCACCTAGTGCAG”, the binding signal was 27200 fluorescence intensity (a.u.).

Take “TCGCTTATTAATTAGAGTAATAATTGTACTCTATTATCAACGGAGTCACCTAGTGCAG”: the binding signal is 17800 fluorescence intensity (a.u.).

Take “CAAAGTTTGATTAATGTAAAACCTGAAAGTCTGCAAAGTTCGGAGTCACCTAGTGCAG”: the binding signal is 14600 fluorescence intensity (a.u.).

In the case of “GTCATTTTAATTGCAAATGCTTTTATATGTTGTTTCTTTCCGGAGTCACCTAGTGCAG”, the binding signal is 6630 fluorescence intensity (a.u.).

With “GCGATTTTAATGGGATTAATTTTGACCTCGATCGGCATATCGGAGTCACCTAGTGCAG”, the binding signal was 12400 fluorescence intensity (a.u.).

On to “GCTGCCAATTTGCCAAATCATATTCTCACGCCCTACCTAACGGAGTCACCTAGTGCAG”, for which the binding signal was 10400 fluorescence intensity (a.u.).

Consider “CTAAATTTTGCCGAGATCGAGCAGTTCAGTGTGTCTGTCACGGAGTCACCTAGTGCAG”, for which the binding signal is 7610 fluorescence intensity (a.u.).

Regarding “CATGTTTTATTAGATAGATTGTGGGTGCTCTTAGTGACAGCGGAGTCACCTAGTGCAG”, the binding signal is 5560 fluorescence intensity (a.u.).

“ACATGATTTTCATAAAAGAGATGAGCAGATAATCACTAGTCGGAGTCACCTAGTGCAG”: the binding signal was 5960 fluorescence intensity (a.u.).

With “CAACTAGTTTGATTAGGTCAACGTGCCATATCAACGAAATCGGAGTCACCTAGTGCAG”, the binding signal was 3330 fluorescence intensity (a.u.).
